According to the RNAGym collection of RNA variant scans (doi:10.7554/elife.90254):
Read counts are not given, so values of variants with three or more changes are uncertain.

B1: LINE1-mini (parent)
chain: GGCAGAGCUCAACACAGCGUGGCAAAGUGGCUGUGGCUAGACUGCC

Variants of: B1
Assay: self-cleavage, relative activity (ratio to wild type); higher = more cleavage; in vitro, sequencing; the parent is a self-cleaving ribozyme

| Variant | self-cleavage |
| --- | --- |
| GGCAGAGCUUAACACAGCGGGGCAAAGUGGCUGUGGCUAGCUUGGC [C10U U20G A41C C42U C45G] | 0.01 |
| GGAAGAGCUCAACACAGCGUGGCAAAGUGGCUGUGGCUAGUCAGAC [C3A A41U U43A C45A] | 0.19 |
| GGCAGAGCUCAACACAGCGUGACAAAGUGGCUGUGUCUUGAACGCA [G22A G36U A39U C42A U43C C46A] | 0.03 |
| UGCAGAGCUCAACACAGCGUGGCAAAUGGGCUGUGGCUAUACUGCC [G1U G27U U28G G40U] | 0.04 |
| GGCAGAGCUCAACACAGCUUGGCCAAGUGGCUGUGGCUAGACAGCC [G19U A24C U43A] | 0.02 |
| GGCAGAGCUACACACAGCCUGGCAAAGUGGCUGUGGCUAGACUGUC [C10A A11C G19C C45U] | 0 |
| GGCAGAGCUCAACACUGCGUGGCAAAGUGGUUGUGGCUAGACUGAC [A16U C31U C45A] | 0 |
| GGCAGAGCUCAACACAGCGUGACUAAGUGGCUGUGGUUAGCCUGCC [G22A A24U C37U A41C] | 0.01 |
| GACAAAGCUCAACACAUCGUAGCAAAGUGGCUGUGGCUAGACUGCC [G2A G5A G17U G21A] | 0.19 |
| GGUAGAGUUCAAAACAGCGUGGCAAAGUGGCUGUGGCUAGACUGCC [C3U C8U C13A] | 1.23 |
| GGCAGAGCUCAACACAGCGUGUCAAAGUGGCUGUGGCAUUACUGCC [G22U U38A A39U G40U] | 0.09 |
| GGCAAAGCUCAACACAGCGUGGCAAAGUGGCUGUGGCCAGACUGCA [G5A U38C C46A] | 0.13 |
| GGCAGAGCUCAACCCAGUGUGGUAAAGUGGCUGUGGCUAGAUUGCC [A14C C18U C23U C42U] | 0.05 |
| GGCACAGUUCAACACAGUGUGGCAAAGUGGGUGUGGCUAGACUGCC [G5C C8U C18U C31G] | 0.11 |
| GCCAGAGCUCAACACAUCGUGGCAAAGUGGCUGUGGCUAGCCUGCC [G2C G17U A41C] | 0.08 |
| GGCAGAGUUCAACACAGCGUGGCAAAGUGGAUGUGGAUAGACUGCC [C8U C31A C37A] | 0.2 |
| GGCAGAUCUAUACACAGCGUGACAGAGUGGCUCUGGCUAGACUGCC [G7U C10A A11U G22A A25G G33C] | 0.01 |
| UGCAGAGCUCAACACAGGGUGGCAAAGUGGCUCUGGCUAGACUGCC [G1U C18G G33C] | 0.05 |
| GGCCGUGCUCAACACAGCCUGGCAAAGUGGCUGUGGCUAGACUGCC [A4C A6U G19C] | 0.06 |

| Variant | self-cleavage |
| --- | --- |
| GGCAGAGCUCCACACAGCGUGGAAAAGUGGCUCUGGCGAGACUGCC [A11C C23A G33C U38G] | 0 |
| GGAAGCGCUCAACACAGCGUGGCAAAGUGGCUGUGGCUAGACUUCC [C3A A6C G44U] | 2.52 |
| GGCAUAGCUCAACACAGCAUGGCAAUGUGGCUGUGGCUAAACUGCC [G5U G19A A26U G40A] | 0.06 |
| GGCUGAGCUAAACAUAGCGUGGCGAAGUGGCUGUGGCUAGACUGCC [A4U C10A C15U A24G] | 0.07 |
| GGCAGAGCUAAACACAGCGUGGCAAAGUGGCUGUGGCUGGGCCGCC [C10A A39G A41G U43C] | 0.01 |
| GGAACAGCUCAACACAUCGUGGCAAAGUGGCUGUGGCUAGACUGCC [C3A G5C G17U] | 0.04 |
| GGCUAAUCUAAACACAGCGUGGGAAAAUGGCUGUGGCUAGACUGCC [A4U G5A G7U C10A C23G G27A] | 0.04 |
| GGCAGAGCUCAACACAGCGUGGUAAAGGGGCUGUGUCAAGACUGCC [C23U U28G G36U U38A] | 0.01 |
| GGCAGAGCUCAACAUAGCGUAGCAAAGGGGCUGUGGUUAGACAGCC [C15U G21A U28G C37U U43A] | 0.01 |
| GGCUGAGCGCAACACAGCGUGGCAAAGUGGCUGAGGGUAGACUGCC [A4U U9G U34A C37G] | 0.05 |
| GGCAGAGCUCAACACAGCGUCGCAAAGUGGCUUAGGCUACACUGCC [G21C G33U U34A G40C] | 0.02 |
| GGCAGAACUCAACAAAGCGGGGCAAAGUCGCUGUGGGCAGACUGCC [G7A C15A U20G G29C C37G U38C] | 0.2 |
| GCCAGAGCUCAACACAGAGUGGCAUAGUGGCUGUGGCUAGACUGCC [G2C C18A A25U] | 0.09 |
| GGCAGAGCUCAACACAGUGUGGCAAAAUGGCUGUGGCUAGACUGCA [C18U G27A C46A] | 2.49 |
| GGCAGAGCUCAACACAGCGGGGCAAAGUGGCUGUGACUAGACUUCC [U20G G36A G44U] | 0.03 |
| GGCAGGGCUCAACACACCGUGGCAAAGUGGAUGUGGCUAGACUGCC [A6G G17C C31A] | 0.02 |
| GGCAGAGCUCAACACAGCGUGGCAGGGUGGCUGUGGCUAGACUACC [A25G A26G G44A] | 0.2 |
| GGCAAUGCUCAACACGGCGUGGCAUAGUGGCUGUAGCUAGACUGGC [G5A A6U A16G A25U G35A C45G] | 0.02 |
| GGCAGAGGUCAACACAGCGUGGCAUAGUGGCUGGGGCUAGACUGCC [C8G A25U U34G] | 0.03 |

| Variant | self-cleavage |
| --- | --- |
| GGCAGAGCCCGACACAGCGUGGCAAAGUGGCUGUGGCUAGUCUGCC [U9C A11G A41U] | 0.01 |
| GGAAGAGCUCAACACAGCGUGGCAAAGUGGUUCAGGCUAGACUGCC [C3A C31U G33C U34A] | 0.04 |
| GGCAGAGCUCAACACAGCGUGGCUCAGUGGCGGUGGAUAGACUGCC [A24U A25C U32G C37A] | 0.03 |
| GGGAGAGCUCAACACACCGUGGCAAAGUGGGUGUGCCUAGACUGCC [C3G G17C C31G G36C] | 0.04 |
| GGCAGAGCUCACCACAGCGUGGCAAAGUGGCUGUGUCUAUACUGCC [A12C G36U G40U] | 0.06 |
| GGCAGAGCUCAACACAGCGUGGCAGAGUGGCUGUGGCUAAACUGGC [A25G G40A C45G] | 0.06 |
| GGCAAAGCUAAACACAGCGUGGCAAAGUGGCCGUGGCUAAACUGCC [G5A C10A U32C G40A] | 0.02 |
| GUCAGACCUCAACACAGCGUGGCACAGUGGCUGUAGCUAGACUGCC [G2U G7C A25C G35A] | 0.04 |
| GGCAGAGCUAAACACAGCCUGGCAAAGUGGCUGUGGCUAGACUGCU [C10A G19C C46U] | 0.01 |
| GGCCGAGCUCAACACAGCGUGCCAAAGUGGUUGUGGCUAGACUGCC [A4C G22C C31U] | 0.04 |
| GCCAGAGCUCAACACAGCGUGGCAAAGUGGCUGUGGCUAUAGUGCC [G2C G40U C42G] | 0.04 |
| GGCAAGGCUCAACACAGCGUGGCAGAGUGGUUGUGGCUAGAUUGCC [G5A A6G A25G C31U C42U] | 0.02 |
| GGCAGAUCUCAACAGAGCGUCGCAAAGUGGCUGGGGCGAGCCUGCC [G7U C15G G21C U34G U38G A41C] | 0.02 |
| GGCAGAGCUUAACACAGCGUGGCUAAGUGGCUGUGGCUUGACUGCC [C10U A24U A39U] | 0.41 |
| GGCAGAGCUCAACACGUCGUCGCAAAGUGGCUGUGGUUAGACUGCC [A16G G17U G21C C37U] | 0.01 |
| GGCAGAGCUCAACACAGGGGGGCAAACUGGCUGUGGCUACCCUGCC [C18G U20G G27C G40C A41C] | 0 |
| UGCAGAGCUCAACAUAGCGUUGCAAAGUGGCUGUGGCUAGACUGCC [G1U C15U G21U] | 0.66 |
| GGCAGAGGUUUACACAGCGUGGCUAAGUGGAUGUGGCUGGACUGCA [C8G C10U A11U A24U C31A A39G C46A] | 0.01 |
